About 2,200 (0.71%) of roughly 310,000 compounds showed an effect of 50% or more. The effect is printed as a negative number. Some of the results follow.
Molecular target: human ether-à-go-go-related gene (hERG) potassium channel (human, UniProt Q12809)
Assay: primary screen, population patch clamp on CHO cells stably expressing hERG

Chain of human ether-à-go-go-related gene (hERG) potassium channel (Q12809 whole entry, looked up): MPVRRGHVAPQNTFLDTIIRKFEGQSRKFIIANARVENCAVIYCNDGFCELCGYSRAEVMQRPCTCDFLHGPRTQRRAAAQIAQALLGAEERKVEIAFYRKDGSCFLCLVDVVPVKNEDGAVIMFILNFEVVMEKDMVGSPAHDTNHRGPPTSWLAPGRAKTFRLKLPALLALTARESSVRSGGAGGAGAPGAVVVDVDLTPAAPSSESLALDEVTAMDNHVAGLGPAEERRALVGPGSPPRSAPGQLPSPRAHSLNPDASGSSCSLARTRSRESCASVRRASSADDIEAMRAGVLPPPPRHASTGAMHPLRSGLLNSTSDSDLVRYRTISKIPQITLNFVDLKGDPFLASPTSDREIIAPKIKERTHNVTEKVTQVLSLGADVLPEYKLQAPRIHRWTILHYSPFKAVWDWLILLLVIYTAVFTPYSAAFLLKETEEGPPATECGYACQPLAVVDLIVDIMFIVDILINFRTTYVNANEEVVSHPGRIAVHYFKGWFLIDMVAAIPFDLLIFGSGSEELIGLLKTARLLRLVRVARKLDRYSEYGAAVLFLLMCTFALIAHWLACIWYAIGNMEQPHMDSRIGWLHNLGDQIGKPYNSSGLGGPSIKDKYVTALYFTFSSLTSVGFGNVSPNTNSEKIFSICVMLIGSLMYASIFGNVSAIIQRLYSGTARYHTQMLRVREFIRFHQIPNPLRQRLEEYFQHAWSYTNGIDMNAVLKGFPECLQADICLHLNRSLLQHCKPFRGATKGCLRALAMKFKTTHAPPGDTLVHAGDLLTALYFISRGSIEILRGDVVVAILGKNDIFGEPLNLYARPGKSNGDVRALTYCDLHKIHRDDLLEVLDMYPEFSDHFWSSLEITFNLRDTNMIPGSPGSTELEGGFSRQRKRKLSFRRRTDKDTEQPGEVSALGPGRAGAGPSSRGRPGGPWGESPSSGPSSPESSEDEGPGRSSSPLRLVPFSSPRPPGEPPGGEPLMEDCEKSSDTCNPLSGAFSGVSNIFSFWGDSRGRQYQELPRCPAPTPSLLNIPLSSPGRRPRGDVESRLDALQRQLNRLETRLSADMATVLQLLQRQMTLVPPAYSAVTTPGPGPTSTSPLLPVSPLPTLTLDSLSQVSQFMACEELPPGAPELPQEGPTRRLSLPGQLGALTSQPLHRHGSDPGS

SMILES | hERG current change (%, negative = inhibition) at 1uM
CCOc1cc(/C=C2\SC(=NC)N(C)C2=O)cc(Cl)c1OC(C)=O | 4.56%
CC(C)(C)c1nc(Sc2ncccc2[N+](=O)[O-])n[nH]1 | 7.76%
Cc1nc2cc(Cl)ccc2c(=O)n1Cc1ccncc1 | 2.18%
CN(C)CCCNC(=S)N(CCCO)Cc1cc2cc3c(cc2[nH]c1=O)OCO3 | 15.9%
O=S(=O)(Cc1ccccc1)N1CCN(Cc2ccccc2)CC1 | 1.08%
NC(CSS(=O)(=O)O)=NCCC12CC3CC(CC(O)(C3)C1)C2 | 17.5%
COCCNC(=O)c1cn(C)c2ccc(S(=O)(=O)N3CCCCC3)cc2c1=O | 10.6%
Cc1ccc2c(CC(=O)OCC(=O)Nc3ccc(Cl)cn3)coc2c1 | 11%
O=C(NCC1CCCO1)c1ccc2c(=O)n(-c3ccccc3)c(=S)[nH]c2c1 (centres unmarked) | 4.15%
O=C(CSc1n[nH]c(=O)[nH]c1=O)N/N=C/c1ccccc1O | 18.9%
COC(=O)CSc1nc(C)c2ccc(OC)cc2n1 | 16.8%
Cc1ccc(CS(=O)Cc2ccc(C(=O)NCc3ccccc3)o2)cc1 (centres unmarked) | 11.1%
CCN=c1scc(-c2ccc3c(c2)NC(=O)CO3)n1N=C1CCCC1 | 4.07%
COc1cc(S(=O)(=O)NCCc2ccc3c(c2)OCO3)ccc1-n1cnnn1 | -3.05%
Cc1nc(N/N=C/c2ccc(Br)cc2)cc(N2CCOCC2)n1 | 7.64%
O=S(=O)(c1ccccc1)N1CCN=C1SCc1cccc(Cl)c1 | -12.3%
COc1ccc(-c2noc(-c3cccc(OC)c3OC)n2)cc1OC | 20.7%
CCC1Nc2ncnc(N3CCN(c4ccccc4)CC3)c2N(Cc2ccc(C)cc2)C1=O.O=C(O)C(F)(F)F (centres unmarked) | 12.9%
COC(=O)c1ccc(CSc2nc3ccccc3o2)cc1 | -1.78%
CC(=O)Nc1ccc(C(=O)OCC(=O)N2CCCC2)cc1 | 14.6%
Cc1c(C(=O)Nc2cc(F)ccc2F)sc2nc3n(c(=O)c12)CCCCC3 | 18.1%
COC(=O)c1ccc(CC(=O)c2c(C)cc(O)cc2O)o1 | -0.154%

SMILES | hERG current change (%, negative = inhibition) at 1uM
CCN(CC)C(=O)Cn1cc(/C=C(\C#N)C(=O)NC2CC2)c2ccccc21 | 8.04%
CCN(CC)Cc1cc(NC2=NS(=O)(=O)c3ccccc32)ccc1OC(=O)c1ccccc1.Cl | -27.9%
Cc1ccc(S(=O)(=O)N2CCN(CC(=O)NC3CCCc4ccccc43)CC2)c(C)c1 (centres unmarked) | 1.55%
CC(C)N1CC2=C(OC(N)=C(C#N)C2c2cccnc2)/C(=C/c2cccnc2)C1 (centres unmarked) | 2.83%
O=C(CCS(=O)(=O)c1ccc(Cl)cc1)Nc1nc(-c2cccnc2)cs1 | 9.46%
CC(=O)c1ccc(N2CCN(S(=O)(=O)c3c(C(=O)N4CCCC4)c(C)n(C)c3C)CC2)cc1 | 16.7%
COCCCNC(=O)CCc1nnc2ccc(N3CCC(C)CC3)nn12 | 12.7%
CCOc1ccc(C(=O)Cc2ccc3oc(C(=O)O)cc3c2)c(O)c1 | 0.361%
O=C(c1ccco1)N1CCN(C2c3ccccc3-c3ccccc32)CC1 | 11.9%
COc1ccc(NC(=O)c2ccc3c(=O)n(-c4ccc(OC)cc4OC)c(=S)[nH]c3c2)cc1 | 10.8%
O=C(O)c1cccc(-n2cnnn2)c1 | 10.6%
Clc1cnc(N/N=C/c2ccco2)c(Cl)c1 | -4.51%
CCN(CC)Cc1cc(C(=O)O)c(C)o1 | 12.1%
CC(C)c1ccc(NC(=O)c2cc(S(=O)(=O)N3CCCC3)c[nH]2)cc1 | 10.4%
Cc1ccccc1NC(=O)CNC(=O)c1ccc(C(F)(F)F)cc1 | 14.1%
Cc1nnc(SCC(=O)NC(=O)NCc2ccco2)s1 | 9.29%
CC(C)n1nc(C(=O)NCCc2ccc(S(N)(=O)=O)cc2)c2ccccc2c1=O | 0.485%
CCN1C(=O)/C(=C\c2ccc(-c3cccc(C(=O)OC)c3)o2)SC1=Nc1ccc(C(=O)O)cc1 | 16%
N#Cc1cccc(C#N)c1Oc1ccc(S(=O)(=O)Nc2ccc(Cl)cc2)cc1 | 13.7%
COc1ccc(C)cc1NC(=O)C1CCCN1S(=O)(=O)c1ccc2c(c1)CCC(=O)N2 (centres unmarked) | -5.18%
CC(=O)NC(CC(=O)NNC(=O)c1cccs1)c1ccccc1 (centres unmarked) | 21.1%
COCCNS(=O)(=O)c1ccc(OCC(=O)N2CCc3ccccc3C2)c(Cl)c1 | 4.25%

SMILES | hERG current change (%, negative = inhibition) at 1uM
CC1N(C(=O)N2CCOCC2)CCN1S(=O)(=O)c1cccc(C(F)(F)F)c1 (centres unmarked) | 15.9%
Cc1cc(C)n(-c2c(F)c(F)c(CO)c(F)c2F)n1 | 8.69%
COC(=O)c1cc(OC)c(OC)cc1NC(=O)c1ccc(C)o1 | 13%
COc1ccc(OC)c(CN2CCN(S(=O)(=O)c3ccc(NC(C)=O)cc3)CC2)c1.O=C(O)C(=O)O | 4.38%
O=C(Nc1cccc(C(=O)O)c1)/C(=C\c1ccccc1)NC(=O)c1ccccc1Cl | 7.16%
COc1ccc(Cc2nc3ccc(C(=O)N4CCCCC4CCO)cc3o2)cc1 (centres unmarked) | 10.1%
Cc1cc(C(=O)Cn2nc(C(=O)O)c3ccccc3c2=O)c(C)n1CCc1ccc(F)cc1 | 8.91%
O=C(NCc1ccccc1OC(F)(F)F)C1CCC(=O)N(Cc2ccccn2)C1 (centres unmarked) | 4.53%
CC1=C(C(=O)c2ccccc2)C(c2cn(-c3ccccc3)nc2-c2ccc(Cl)cc2)NC(=S)N1 (centres unmarked) | 15.8%
O=C1c2cccc3cccc(c23)C(=O)N1Nc1ccccc1 | 12.9%
CC(=O)N1N=C(c2ccc(C)o2)CC1c1ccc(F)cc1 (centres unmarked) | -2.69%
CCCCOC(=O)CCN1C(=O)/C(=C2\SC(=S)N(CCC(=O)OCCCC)C2=O)SC1=S | 10.3%
Cc1ccc(N2C(=O)NC(=O)/C(=C/c3ccc(-c4ccc(C(=O)O)c(Cl)c4)o3)C2=O)cc1 | 1.62%
CC(Oc1ccc(Br)cc1)C(=O)Nc1nnc(C2CC2)s1 (centres unmarked) | 1.93%
COc1cccc(S(=O)(=O)NCc2ccc(C(=O)Nc3cccc(Cl)c3)cc2)c1 | 5.39%
O=C(COC(=O)c1ccc(N2CCCC2=O)cc1)c1ccc(OC(F)F)cc1 | 2.83%
CC1(c2ccc3noc(-c4ccc(F)cc4)c3c2)OCCO1 | 4.23%
O=C(Nc1cc2c(cc1Cl)OCCCO2)c1ccccc1 | 2.67%
Cn1c(=O)oc2cc(S(=O)(=O)N3CCCC(C(=O)NCc4cccs4)C3)ccc21 (centres unmarked) | -1.01%
Cc1cccc2c(C(=O)N3CCCCC3)cc(-c3ccccc3)nc12 | 13.9%
Cc1ccc(NC(=O)COC(=O)C2CC(=O)N(Cc3ccccc3)C2)cc1S(=O)(=O)N(C)C (centres unmarked) | 19%
Cc1cccc(C(=O)NC2CC3CCCC(C2)N3C(=O)NC2CCCCC2)c1 (centres unmarked) | 11.6%

SMILES | hERG current change (%, negative = inhibition) at 1uM
Oc1[nH]c2ccccc2c1/C=N/N1CCCCC1 | 17.5%
Cc1cc(C)n2nc(S(=O)(=O)N(C)Cc3ccccc3)nc2n1 | -5.36%
COC(=O)c1cc(NS(=O)(=O)c2ccc(N3CCC(C)CC3)c([N+](=O)[O-])c2)cc(C(=O)OC)c1 | 8.4%
CC(=O)NC(Cc1ccccc1)C(=O)N1CCN(C(=O)c2ccco2)CC1 (centres unmarked) | 5.18%
COc1ccc(OCCSCc2nnc(NC(=O)Nc3ccc(Cl)cc3)s2)cc1 | 9.02%
Cc1sc(C(C2C(=O)CC(C)(C)CC2=O)C2C(=O)CC(C)(C)CC2=O)cc1[N+](=O)[O-] | 16%
Cc1[nH]nc(Nc2ccc(O)cc2)c1[N+](=O)[O-] | 8.52%
CCN(CC)CCCN(C)C(=O)Cn1nc(Cc2ccncc2)c2ccccc2c1=O | 12.2%
O=C(CSc1nnnn1CCCO)Nc1ccc2c(c1)OCO2 | 13.9%
Cc1cc(C)cc(-n2ncc3c2CCCC3NC(=O)CCCn2cncn2)c1 (centres unmarked) | 5.09%
CC1CCc2sc(NC(=O)C3CC(Cl)=CCC3C(=O)O)c(C#N)c2C1 (centres unmarked) | 14.9%
CC(=O)c1cc(C#N)c(Oc2cc(C)cc(C)c2)nc1C | 5.82%
COc1ccc(N2CCN(S(=O)(=O)CCNC(=O)COc3ccccc3OC)CC2)cc1 | 4.64%
O=C(NC(=S)NCCc1ccccc1)c1cccc(Cl)c1 | 11.3%
NC(=O)C1CCN(CC(=O)Nc2ccccc2Sc2ccccc2)CC1 | -16.2%
Cc1ccc(-n2c(SCC(=O)N3CCOCC3)nnc2-c2cccnc2)cc1 | 7.05%
O=C1CC(N2CCN(c3ccccc3Cl)CC2)C(=O)N1c1cccc(F)c1 (centres unmarked) | 11.5%
Cc1ccc(COC(=O)CN2C(=O)NC3(CCCC3)C2=O)cc1 | 15%
COc1cc(NC(=O)c2ccccc2)c(OC)cc1Cl | 5.79%
CC(NC(=O)CN1C(=O)NC2(CCCCCC2)C1=O)c1ccccc1 (centres unmarked) | -1.98%

— paper PMC4336329 (PLoS ONE, 2015)
